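All cell lines were grown in 96-well plates and treated with compound for 48 hours. Here, GI50 denotes the concentration required for 50% inhibition of growth. At the TGI there is no net growth.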
These molecules were tested on NCI-H322M lung (assay: DTP human tumour cell line panel, 48 h).

Structure (SMILES)	TGI	GI50
COC(=O)c1ccccc1/C=C1\Cc2cc(C)cc(C)c2C1=O	> 100 µM	
O=C([CH-]C(=O)c1ccccc1)c1ccccc1.O=C([CH-]C(=O)c1ccccc1)c1ccccc1.O=C([CH-]C(=O)c1ccccc1)c1ccccc1.[OH3+].[Y+3]	39.9 µM	4.25 µM
O=C(O)c1ccc2c(c1)CC1(C2)Cc2ccccc2C1=O (configuration not stated)	> 100 µM	
CN(C)c1ccc(/C=c2/c3ccccc3n3c2cc(C24CC5CC(CC(C5)C2)C4)[n+]3C)cc1	1.46 µM	
C=CCC(C(=O)O)c1ccccc1 (configuration not stated)	> 100 µM	
COC(=O)C12CC(c3ccccc31)C1C(=O)OC(=O)C12 (configuration not stated)	> 100 µM	
COc1cc2c(cc1OCCCCCCN1CCN(c3ncnc4ccccc34)CC1)N=CC1CCCN1C2=O (configuration not stated)	0.679 µM	0.238 µM
COc1ccc(NC(C)=O)cc1C1CCC(=O)N1 (configuration not stated)	> 100 µM	
C=CCN(CC=C)C(=O)c1cc(C)nc2c1c(=O)n(-c1ccccc1)c(=O)n2CC(O)CN1CCN(c2ncccn2)CC1 (configuration not stated)	> 100 µM	> 100 µM
COc1ccc(-c2c(CN3CCOCC3)sc3nc4ccccc4n23)cc1	97.8 µM	
COC(=O)C(=O)C(C#N)c1ccc(CC#N)cc1 (configuration not stated)	> 100 µM	
O=c1[nH]nc(Cc2ccccc2)n1/N=C/c1ccccc1Cl	> 100 µM	
Nc1ccc2c3c(n(CCCCl)c(=O)c2c1)-c1cc2c(cc1C3=O)OCO2	> 100 µM	> 100 µM
CCOC(=O)C(NC(=O)CC(C)C)(Nc1ccc(S(=O)(=O)Nc2nc(C)cc(C)n2)cc1)C(F)(F)F (configuration not stated)	> 100 µM	
COc1ccc(-c2nc3ncccn3c2/C=C/C(=O)c2cc(OC)c(OC)c(OC)c2)cc1	7.63 µM	1.76 µM
Cn1c(Nc2ccccc2)c(C=Nc2ccccc2)c(=O)n(C)c1=O	> 100 µM	
COC(=O)C1=C(\c2ccccc2)c2ccccc2C(=O)N(C2CCCCC2)/C=C\1	> 100 µM	
Cc1cc(-c2nnc(N)nc2-c2ccc(F)cc2)cc(Cl)n1	> 100 µM	> 100 µM
CCCCCC(CO)C(O)(C(F)(F)F)C(F)(F)F (configuration not stated)	> 10 µM	
O=C(O)CC12C3C4C5C3C1C5C42 (configuration not stated)	> 100 µM	

Structure (SMILES)	TGI	GI50
COc1ccc(C2=C(c3ccc(OC)c(OC)c3)C(=O)OC2)cc1	> 93.3 µM	0.208 µM
CC(=O)OCC1OC(N2C(C)=C(C(C)=O)C(c3ccco3)C(C#N)=C2S)C(OC(C)=O)C(OC(C)=O)C1OC(C)=O (configuration not stated)	> 100 µM	
O=C(CCc1ccc(O)cc1)NCCc1cccc(OCc2ccccc2)c1	> 100 µM	
COc1ccc(-c2ccc(-c3ccc(C(=N)N)s3)s2)cc1Cl	3.04 µM	1.66 µM
NNc1nc2ccccc2s1	> 100 µM	
NC(=O)c1ccc2c(-c3ccnc(NCCCO)n3)c(-c3ccc(F)cc3)nn2c1	> 25 µM	> 25 µM
CC(=O)NC1C(O)C(O)C(CO)OC1n1ncc(=O)[nH]c1=O (configuration not stated)	> 100 µM	
Cn1c(NS(=O)(=O)c2ccccc2)nc2ccccc21	> 100 µM	
CC(=O)N(CCc1ccccc1)C(C#N)c1ccc(OCCCCCCCCCCOc2ccc(C(C#N)N(CCc3ccccc3)C(C)=O)cc2)cc1 (configuration not stated)	> 100 µM	
O=c1[nH]c(=S)[nH]n1C(=S)n1[nH]c(=S)[nH]c1=O	> 100 µM	
CC12CCC(C(=O)N3CC=CCC3)(OC1=O)C2(C)C (configuration not stated)	> 100 µM	
O=C(N/N=C/c1ccccc1Cl)c1ccccc1Nc1ccnc(C(F)(F)F)c1	4.86 µM	0.58 µM
CC(C)CNc1nc(-c2ccccc2)nc2ccccc12	29.9 µM	16 µM
CN(C)CC/C(=N\Nc1ccccc1)c1ccccc1	> 100 µM	
CC(=O)Nc1c(C)ccc2c1C(=O)c1ccccc1C2=O	> 100 µM	
C[C@H]1C[C@H](C)c2ccccc2N(C)C1=Nc1ccccc1	> 100 µM	
CSC1=N/C(=C\c2ccco2)C(=O)N1CN1CCCCC1	> 100 µM	
COc1ccc(C2=C(N)c3c(OC)cccc3C2=O)cc1	> 100 µM	
CCN=c1cc2sc3cc(NCC)c(C)cc3nc-2cc1C	10.1 µM	2.02 µM
CC(=O)OC1COC(n2c(-c3ccc(Cl)cc3)cc(-c3ccccc3)c(C#N)c2=S)C(OC(C)=O)C1OC(C)=O (configuration not stated)	> 100 µM	
